From PubChem BioAssay AID493208 (National Center for Advancing Translational Sciences (NCATS), 2011)
Hit rate of the full screen: of about 44,000 compounds, about 340 (0.77%) were called active. Another 5% or so got no clear call; they are omitted. The call rests on the fitted dose curve; in most records, active means well fitted inhibition curve with a large enough effect; inconclusive means small, poorly fitted or top-dose-only effect; inactive means flat fitted curve, though single readings scatter. The list shows a part of the results.

Assay: Acumen qHTS Assay for Inhibitors of the mTORC1 Signaling Pathway in MEF (Tsc2-/-, p53-/-) Cells: Sytravon;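 further: plate controls were DMSO for no effect and rapamycin for full effect; nearly all actives have a fitted effect of over 50% in size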
Conditions: phospho-rpS6 immunofluorescence/PI, 24 h; series mostly up to 38.3 µM; activity change, negative = inhibition: at the top concentration
Method in brief: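 Compounds act on Tsc2-/-, p53-/- fibroblasts carrying an empty vector for 24 h before fixation and dual staining for phospho-S6 and DNA (propidium iodide). Values are percentages of cells above a rapamycin-defined pS6/PI threshold.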

Activity change, negative = inhibition, inactive:
COc1ccc(-c2cc(C(F)(F)F)nc(SCC(=O)NC(C)c3ccccc3)n2)cc1 (centres undefined) -21.4%
CCCN1C(C(=O)c2ccccc2)=C(OC(=O)COc2ccc(C)cc2)c2ccccc2S1(=O)=O 2.59%
COC(=O)CN1C(C(=O)c2ccccc2)=C(OC(=O)c2ccccc2)c2ccccc2S1(=O)=O 3.76%
Cc1ccc(NC(=O)CCCn2nc(C)c3c(C)n(-c4ccccc4)nc3c2=O)c(Cl)c1 -1.06%
Cc1ccc(NC(=O)C2CCCN(S(=O)(=O)c3cccs3)C2)c(C)c1 (centres undefined) -0.597%
COc1ccc(S(=O)(=O)N(CC(=O)Nc2ccc(Br)cc2)Cc2ccccc2)cc1 -0.828%
O=C(Nc1c2c(nn1-c1ccc(Cl)cc1)CS(=O)(=O)C2)c1ccc(Br)cc1 6.75%
CCCSCCCNC(=O)Cn1c(-c2cccs2)cc2ccccc21 -5.01%
Cc1cc(O)c(CN2CCN(c3ccccc3)CC2)c2oc(=O)cc(C)c12 -0.996%
Cc1nc(-c2ccc(S(=O)(=O)NCc3ccccc3Cl)cc2)co1 -7.4%
CCCn1c2ccccc2c2cnn(CC(=O)N3CCCC(C(=O)OCC)C3)c(=O)c21 (centres undefined) 0.426%
CCCCN(CCCC)C(=O)c1c[nH]c2ccc(S(=O)(=O)Nc3cccc(Cl)c3C)cc2c1=O -3.88%
COc1ccccc1-c1nn(CCC(=O)Nc2ccc(C)cc2)c2nc(C)cc(C)c12 0.297%
COc1ccc(S(=O)(=O)Nc2cccc(-c3ccc(N4CCCC4)nn3)c2)cc1F 1.91%
CC1=C(C(N)=O)C(c2ccc(C)cc2)n2nc(SCc3ccccc3)nc2N1 (centres undefined) -5.73%
O=C(NCc1ccccc1Cl)C1=Cc2cc(Br)ccc2OC1 1.16%
CCCCCn1c(CCCNC(=O)c2ccccc2OC)nc2ccccc21 -15.2%
CC(C)Oc1ccc(CNC(=O)c2cnc3sc(N4CCCC4)nn3c2=O)cc1 -2.88%
CCOC(=O)NNC(=O)C1CCC(C)CC1 (centres undefined) 4.37%
Cc1oc2c(c1C(=O)NCc1ccccc1F)C1=NCCN1C=N2 -2.55%
O=C(NCC(c1ccc2c(c1)OCO2)N1CCN(c2ccccc2)CC1)C(=O)Nc1ccccc1F (centres undefined) -3.11%
CCOc1ccc(NC(=O)CC2C(=O)N(c3ccc(OC)cc3)C(=O)N2CCC2=CCCCC2)cc1 (centres undefined) -4.39%
CCN(CC)C(=O)Cn1ncc2c([nH]c3ccccc32)c1=O 0.0836%
COc1cccc(N2CCN(C(=O)c3ccc4nc(N5CCC(C)CC5)sc4c3)CC2)c1 -1.47%
CCOC(=O)c1cnc2ccc(C(=O)OC)cc2c1Nc1ccc(OCc2ccccc2Cl)cc1 3.22%
COc1ccc(C)cc1NC(=O)N(C(C)C)C1CCN(C(C)=O)CC1 5.35%
O=C(O)c1cc(-c2ccccc2)nn1Cc1ccccc1 1.66%
Cc1ccc(-c2nnc3ccccc3c2C(=O)Nc2ccc(F)cc2)cc1 3.97%
COc1ccc(C(C)=O)cc1CSc1nc(Nc2ccc(F)c(F)c2)c2ccccc2n1 -1.19%
Cc1ccc(N2CCN(c3nc4ccc(C(=O)c5ccccc5)cc4n4cnnc34)CC2)c(C)c1 -2.42%
Cc1cc(C)cc(NC(=O)C(=O)NCCc2sc(-c3cccc(F)c3)nc2C)c1 1.6%
Cc1ccn2c(Nc3ccccc3)c(-c3c[nH]c4ccccc34)nc2c1 -19.1%
CC(=O)Nc1ccc(NC(=O)c2ccc3c(c2)CCN3S(=O)(=O)c2ccc(C)cc2)cc1 -8.95%
O=C(CSc1n[nH]c(-c2ccccc2)n1)N1CCN(c2ccc(F)cc2)CC1 8.36%
Cc1noc(Cn2c(=O)c3ccccc3n(CC(=O)Nc3cc(Cl)ccc3C)c2=O)n1 -5.42%
CCOC(=O)c1[nH]c2ccccc2c1NC(=O)c1ccc(C)c(C)c1 -1.22%
O=C(CCn1cnc2onc(-c3ccc(F)cc3)c2c1=O)Nc1cccc(C(F)(F)F)c1 -9.99%
Cc1ccc(-c2nnc(Nc3ccc(OCC(N)=O)cc3)c3ccccc23)cc1S(=O)(=O)NCC1CCCO1 (centres undefined) 0.785%
CCOc1ccccc1NC(=O)CN1C(=O)CC(c2ccc(C)c(C)c2)=Nc2ccccc21 -2.65%
Cc1ccc(-n2c(=O)c3c(cnn3C)n(CC(=O)Nc3cccc(Cl)c3)c2=O)cc1 3.25%
Cc1ccc(CNC(=O)C2CCN(C(=O)N3CC(C)Oc4ccc(Cl)cc43)CC2)cc1 (centres undefined) 1.03%
Cc1ccc(CSc2nc3ccccc3c3nc(CCn4c(C)nc5ccccc54)nn23)cc1 -3.1%
CCc1ccccc1NC(=O)CCn1cccn1 0.014%
Cc1cc(C)cc(NC(=O)C(C)N2Cc3ccccc3C2=O)c1 (centres undefined) -0.307%
CCOc1ccc(NC(=O)c2ccc3c(=O)n4c(nc3c2)CCCCC4)cc1 -0.309%
COc1cccc(NC(=O)C(C)n2c(=O)cc(C(F)(F)F)c3c(C)nn(C)c32)c1 (centres undefined) -6.14%
Cc1ccc(-c2nnc(SCc3ccccc3)o2)cc1 0.833%
O=C(NCc1cccc(Br)c1)C1CCCCN1S(=O)(=O)c1ccc(F)cc1 (centres undefined) 0%
CCCNC(=O)CN1C(=O)COc2ccc(S(=O)(=O)N3CCCCCC3)cc21 -7.55%
CC1CCN(S(=O)(=O)c2ccc3c(c2)N(C)C(=O)CC(=O)N3C)CC1 6.74%
CCc1ccc(CNC(=O)CN2C(=O)C3CCCCN3c3ccc(C(=O)N4CCCC4)cc32)cc1 (centres undefined) 0.44%
CC(C)Oc1ccc(CNC(=O)C(C)n2ccc3cc(S(=O)(=O)N4CCCCCC4)ccc32)cc1 (centres undefined) -6.06%
CCc1ccccc1NC(=O)Cn1c(=O)n(C(C)C)c(=O)c2oc3ccccc3c21 -9.92%
CCOc1ccccc1NC(=O)Cn1c(=O)nc(-c2ccccc2F)c2cc(Cl)ccc21 0%
COc1ccc(OCc2nc3ccccc3n2Cc2ccc(C(C)(C)C)cc2)cc1 -24.8%
CCN(CC)C(=O)Cn1c(SCC(=O)Nc2ccc(F)cc2)nc2ccccc21 19.3%
COCCNC(=O)c1ccc(Cn2c(SCC(N)=O)nc3ccccc3c2=O)cc1 1.72%
Cn1c(SCc2ccc(F)cc2)nc2ccc(C(=O)NCc3cccc(Cl)c3)cc21 -0.763%
COc1ccc2c(CNC3CCC(C)CC3)c(C(=O)O)n(Cc3ccc(F)cc3)c2c1 (centres undefined) -4.9%
COc1cccc(OCCSc2nc3ccccc3n2CC(=O)N2CCOCC2)c1 -12.5%
Cc1ccc(N(Cc2cccs2)C(=O)c2ccc(OC(C)C)cc2)cc1 0%
CCOc1ccccc1C(=O)NCc1ccc2c(c1)CCN2C(=O)c1ccc(F)cc1 -3.4%
COc1ccc(-c2noc(CN(C(=O)c3ccc(C)cc3C)C(C)C)n2)cc1 -0.118%
CCOC(=O)c1ccccc1NC(=O)CSc1ccc(-c2sc(C)nc2C)nn1 0.919%
Cc1ccc(C(=O)NCCc2csc(-c3cccc(F)c3)n2)cc1C 0.263%
CCN(C(=O)c1c(C)oc2ncnc(N3CCCCC3)c12)c1cc(C)ccc1C 1.27%
COc1ccc(C2CC(=O)Nc3c2c(C)nn3-c2nncc(-c3ccccc3)n2)c(OC)c1OC (centres undefined) -20.6%
COc1cc2nc(NCCc3cccc(C)c3)n3nc(-c4ccccc4)nc3c2cc1OC -2.94%
CCOC(=O)c1cccc(NC(=O)COc2ccc3c(C)cc(=O)oc3c2)c1 -10.4%
CCOC(=O)c1cnc2c(ccc3ccccc32)c1Nc1ccccc1O -7.36%
Cc1cc(C)cc(NC(=O)NCc2noc3ccccc23)c1 -5.86%
CCC(=O)N1CCCc2cc(S(=O)(=O)N3CCC(C(=O)NC4CCC(C)CC4)CC3)ccc21 (centres undefined) -0.518%
CCOc1ccccc1C(=O)Nc1cccc(-c2nc3ccccc3s2)c1 -0.986%
COc1ccccc1/C=C/c1nc(C#N)c(NCc2ccccc2)o1 -2.31%
COc1ccc(-c2cn3c(n2)sc2cc(C(=O)NCCc4ccccc4)ccc23)cc1 -9.37%
O=C(OCc1cc(=O)n2nc(C3CC3)sc2n1)c1cccc(NC(=O)c2ccccc2Cl)c1 0%
Cc1ccc(C)c(NC(=O)c2cnc(N3CCCC3)nc2C)c1 0%
COc1ccc(-n2ncc(C(=O)NCc3cccs3)c2C2CCN(C(=O)OC(C)(C)C)CC2)cc1 2.09%
Cc1cccc(CNC(=O)C2CCN(c3nn4cc(-c5ccc(F)cc5)nc4s3)CC2)c1 -3.03%
CCc1ccccc1N(CC)C(=O)c1cc2c(s1)-c1ccccc1SC2 -4.85%
O=C(Cc1ccc(Cl)cc1)NC1CC(=O)N(c2ccc3c(c2)OCCO3)C1 (centres undefined) -5.07%
CC1CCN(C(=O)Cn2cc(SCC(=O)NCc3ccccc3)c3ccccc32)CC1 -1.52%
CCc1nnc(NC(=O)c2nc(SCc3cccc(C)c3)ncc2Cl)s1 1.89%
O=S(=O)(c1ccccc1)n1nc(-c2ccco2)nc1NCc1ccccc1 1.64%
CCC(Sc1nnc(-c2ccc(F)cc2)c(-c2ccc(F)cc2)n1)C(=O)NC1CCCC1 (centres undefined) -8.84%
Cc1cccc(-n2ncc3c(NCCOCCO)ncnc32)c1 7.91%
O=C(CSc1nc2c([nH]c3ccccc32)c(=O)n1-c1ccccc1F)Nc1cccc(Cl)c1 -2.04%
CCC(=O)N1CCc2cc(S(=O)(=O)CCC(=O)Nc3cc(Cl)ccc3OC)ccc21 -1.74%
COc1cccc(N2CC(NC(=O)/C=C\c3ccccc3)CC2=O)c1 (centres undefined) 2.01%
Cc1cccc(Cn2c(CN3CCC(C(=O)NC(C)C)CC3)cc3ccccc32)c1 -11.3%
COc1ccc(CNC(=O)C2CCN(S(=O)(=O)c3cccc(-c4noc(C)n4)c3)CC2)cc1 -8%
CCOc1ccc(CNC(=O)c2cc3c(=O)oc4ccc(C)cc4c3s2)cc1 -12.7%
Cc1ccccc1CNCCCSc1nnnn1C 2.45%
Cc1ccc(NC(=O)CSCc2cc(=O)c3ccccc3[nH]2)c(C)c1 0.084%
O=C(COCc1cc(-c2ccc(F)cc2)on1)Nc1cccc(C(F)(F)F)c1 -3.1%
CCCOc1ccc(C2C(=O)N(C3CCCCC3)CC(=O)N2C2CCCCC2)cc1OC (centres undefined) 9%
COc1ccc(Cn2c(CO)cnc2SCc2ccccc2)cc1 -9.32%
Cc1ccc(-n2c(=O)c3c(C)c(C(=O)N(C)C)sc3n(Cc3ccccc3C)c2=O)cc1C 1.86%
COc1ccc(-c2cn3c(n2)sc2cc(C(=O)NCCCN4CCN(C)CC4)ccc23)cc1 -0.974%
